{"source": "the supplement of paper PMC10037445", "key": {"[1]": {"test_system": "RAW-Dual", "experiment": "IRF Lucia reporter activity, fold change vs agonist alone; higher = enhanced IRF activity", "conditions": "agonist: MPLA (TLR4) […]", "method_in_brief": "(§1)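 RAW-Dual macrophages were seeded in DMEM at 50,000 cells/well in 384-well plates, given 50 nL of library stock by pin tool, and given a PRR agonist 1 h later. Plates were held at 37 °C, 5% CO2 for 20 hours, after which supernatant was read for IRF by QuantiLuc luminescence and for NF-κB by QuantiBlue absorbance at 620 nm. Reporter activity is expressed as fold change over wells that received agonist alone. A well was called cytotoxic when IncuCyte confluency fell below 70% of agonist controls in both mask sets.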"}, "[2]": {"test_system": "RAW-Dual", "experiment": "IRF Lucia reporter activity, fold change vs agonist alone; cytotoxicity flag (confluency mask): not cytotoxic; higher = enhanced IRF activity", "method_in_brief": "as §1"}, "[3]": {"test_system": "RAW-Dual", "experiment": "IRF Lucia reporter activity, fold change vs agonist alone; cytotoxicity flag (confluency mask): cytotoxic (confluency <70% of control); higher = enhanced IRF activity", "method_in_brief": "as §1"}, "[4]": {"conditions": "library stock concentration (final ~1000-fold dilution): 10 mM, cytotoxicity flag (confluency mask): not cytotoxic"}, "[5]": {"conditions": "agonist: 3'3'-cGAMP (STING) 10 ug/mL"}}, "note": "Values joined by “and” are separate entries in the source; they are usually repeats but may differ in a detail not shown here. Equal values may be shown once. ± gives the standard deviation of the averaged measurements. Whole data set: some 2,900 compounds, median “IRF Lucia reporter activity, fold change vs agonist alone” near 0.9, cut for the highest 2% near 2.8. Some of the results follow."}
{"smiles": "CC(C)(C(=O)c1cccnc1)c1cccnc1", "values": [{"measurement": "IRF Lucia reporter activity", "setting": "[1]; [4]", "value": 1.07}]}
{"smiles": "CC(C)(C(=O)c1cccnc1)c1cccnc1", "note": "(library stock concentration (final ~1000-fold dilution): 10 mM)", "values": [{"measurement": "IRF Lucia reporter activity", "setting": "[2]; [5]", "value": 1.02}, {"measurement": "IRF Lucia reporter activity", "setting": "[2]; agonist: LPS (TLR4) 0.1 ug/mL", "value": 1.2}]}
{"smiles": "O=C(Cc1ccc(-c2ccc(OCCN3CCOCC3)cc2)cn1)NCc1ccccc1", "values": [{"measurement": "IRF Lucia reporter activity", "setting": "[1]; [4]", "value": 2}]}
{"smiles": "O=C(Cc1ccc(-c2ccc(OCCN3CCOCC3)cc2)cn1)NCc1ccccc1", "note": "(library stock concentration (final ~1000-fold dilution): 10 mM)", "values": [{"measurement": "IRF Lucia reporter activity", "setting": "[2]; [5]", "value": 0.128}, {"measurement": "IRF Lucia reporter activity", "setting": "[2]; agonist: LPS (TLR4) 0.1 ug/mL", "value": 1.72}]}
{"smiles": "CCOc1cc(C(=O)N2CCC(N3CCN(C)CC3)CC2)ccc1Nc1ncc2c(n1)N(C1CCCC1)c1ccccc1C(=O)N2C", "note": "(library stock concentration (final ~1000-fold dilution): 10 mM)", "values": [{"measurement": "IRF Lucia reporter activity", "setting": "[3]; [5]", "value": 0.277}, {"measurement": "IRF Lucia reporter activity", "setting": "[3]; agonist: LPS (TLR4) 0.1 ug/mL", "value": 0.161}]}
{"smiles": "CCOc1cc(C(=O)N2CCC(N3CCN(C)CC3)CC2)ccc1Nc1ncc2c(n1)N(C1CCCC1)c1ccccc1C(=O)N2C", "values": [{"measurement": "IRF Lucia reporter activity", "setting": "[1]; library stock concentration (final ~1000-fold dilution): 10 mM, cytotoxicity flag (confluency mask): cytotoxic (confluency <70% of control)", "value": 0.12}]}
{"smiles": "O=C(NOCCO)c1ccc2cncn2c1Nc1ccc(I)cc1F", "values": [{"measurement": "IRF Lucia reporter activity", "setting": "[1]; [4]", "value": 3.27}]}
{"smiles": "O=C(NOCCO)c1ccc2cncn2c1Nc1ccc(I)cc1F", "note": "(library stock concentration (final ~1000-fold dilution): 10 mM)", "values": [{"measurement": "IRF Lucia reporter activity", "setting": "[2]; [5]", "value": 0.814}, {"measurement": "IRF Lucia reporter activity", "setting": "[2]; agonist: LPS (TLR4) 0.1 ug/mL", "value": 3.65}]}
{"smiles": "O=c1cc(-c2ccc(O)c(O)c2)oc2cc(O)cc(O)c12", "values": [{"measurement": "IRF Lucia reporter activity", "setting": "[1]; [4]", "value": 0.357}]}
{"smiles": "O=c1cc(-c2ccc(O)c(O)c2)oc2cc(O)cc(O)c12", "note": "(library stock concentration (final ~1000-fold dilution): 10 mM)", "values": [{"measurement": "IRF Lucia reporter activity", "setting": "[2]; [5]", "value": 0.107}, {"measurement": "IRF Lucia reporter activity", "setting": "[2]; agonist: LPS (TLR4) 0.1 ug/mL", "value": 0.118}]}
{"smiles": "C[N+]1(C)CCC[C@H]1C(=O)[O-]", "note": "(library stock concentration (final ~1000-fold dilution): 10 mM)", "values": [{"measurement": "IRF Lucia reporter activity", "setting": "[2]; [5]", "value": 0.978}, {"measurement": "IRF Lucia reporter activity", "setting": "[2]; agonist: LPS (TLR4) 0.1 ug/mL", "value": 1.09}]}
{"smiles": "CC1(C)C(C(=O)O)N2C(=O)CC2S1(=O)=O", "note": "(stereo not given) (library stock concentration (final ~1000-fold dilution): 10 mM)", "values": [{"measurement": "IRF Lucia reporter activity", "setting": "[2]; [5]", "value": "0.996 and 1.02"}, {"measurement": "IRF Lucia reporter activity", "setting": "[2]; agonist: LPS (TLR4) 0.1 ug/mL", "value": "1.04 and 0.912"}]}
{"smiles": "C=CC(=O)N1CCC(Oc2nc(Nc3ccc(N4CCC(N5CCN(C)CC5)CC4)cc3)c(C(N)=O)nc2CC)C1", "note": "(stereo not given) (library stock concentration (final ~1000-fold dilution): 10 mM)", "values": [{"measurement": "IRF Lucia reporter activity", "setting": "[3]; [5]", "value": 0.0235}, {"measurement": "IRF Lucia reporter activity", "setting": "[3]; agonist: LPS (TLR4) 0.1 ug/mL", "value": 0.0192}]}
{"smiles": "O=C(Nc1ccc(Cl)cc1)C1CCCN(C(=O)c2cccc(-c3ccco3)c2)C1", "note": "(stereo not given) (library stock concentration (final ~1000-fold dilution): 10 mM)", "values": [{"measurement": "IRF Lucia reporter activity", "setting": "[2]; [5]", "value": 0.684}, {"measurement": "IRF Lucia reporter activity", "setting": "[2]; agonist: LPS (TLR4) 0.1 ug/mL", "value": 0.658}]}
{"smiles": "CC1(C)CCC2(NC(=O)C(C)(F)F)CCC3(C)C(C(=O)C=C4C5(C)C=C(C#N)C(=O)C(C)(C)C5CCC43C)C2C1", "note": "(stereo not given) (library stock concentration (final ~1000-fold dilution): 10 mM)", "values": [{"measurement": "IRF Lucia reporter activity", "setting": "[3]; [5]", "value": "0.00909 ± 0.0055"}, {"measurement": "IRF Lucia reporter activity", "setting": "[3]; agonist: LPS (TLR4) 0.1 ug/mL", "value": "0.0119 ± 0.011"}]}
{"smiles": "CC(C)N(CCCNC(=O)Nc1ccc(C(C)(C)C)cc1)CC1OC(n2cc(Br)c3c(N)ncnc32)C(O)C1O", "note": "(stereo not given)", "values": [{"measurement": "IRF Lucia reporter activity", "setting": "[1]; [4]", "value": 1.27}]}
{"smiles": "CC(C)N(CCCNC(=O)Nc1ccc(C(C)(C)C)cc1)CC1OC(n2cc(Br)c3c(N)ncnc32)C(O)C1O", "note": "(stereo not given) (library stock concentration (final ~1000-fold dilution): 10 mM)", "values": [{"measurement": "IRF Lucia reporter activity", "setting": "[2]; [5]", "value": 0.376}, {"measurement": "IRF Lucia reporter activity", "setting": "[2]; agonist: LPS (TLR4) 0.1 ug/mL", "value": 1.1}]}
{"smiles": "CCOCCn1c(N2CCCN(C)CC2)nc2ccccc21.O=C(O)/C=C/C(=O)O.O=C(O)/C=C/C(=O)O", "values": [{"measurement": "IRF Lucia reporter activity", "setting": "[1]; [4]", "value": 1.22}]}
{"smiles": "CCOCCn1c(N2CCCN(C)CC2)nc2ccccc21.O=C(O)/C=C/C(=O)O.O=C(O)/C=C/C(=O)O", "note": "(library stock concentration (final ~1000-fold dilution): 10 mM)", "values": [{"measurement": "IRF Lucia reporter activity", "setting": "[2]; [5]", "value": 1.05}, {"measurement": "IRF Lucia reporter activity", "setting": "[2]; agonist: LPS (TLR4) 0.1 ug/mL", "value": 0.996}]}
{"smiles": "Cc1ccc(-c2ncc(Cl)cc2-c2ccc(S(C)(=O)=O)cc2)cn1", "note": "(library stock concentration (final ~1000-fold dilution): 10 mM)", "values": [{"measurement": "IRF Lucia reporter activity", "setting": "[2]; [5]", "value": 1.12}, {"measurement": "IRF Lucia reporter activity", "setting": "[2]; agonist: LPS (TLR4) 0.1 ug/mL", "value": 0.786}]}
{"smiles": "Cc1ccc(-c2ncc(Cl)cc2-c2ccc(S(C)(=O)=O)cc2)cn1", "values": [{"measurement": "IRF Lucia reporter activity", "setting": "[1]; [4]", "value": 1}]}
{"smiles": "CC(=O)NCC(=O)O.CC(=O)NCC(=O)O.N=C(N)c1ccc(N=NNc2ccc(C(=N)N)cc2)cc1", "values": [{"measurement": "IRF Lucia reporter activity", "setting": "[1]; [4]", "value": 1.08}]}
{"smiles": "CC(=O)NCC(=O)O.CC(=O)NCC(=O)O.N=C(N)c1ccc(N=NNc2ccc(C(=N)N)cc2)cc1", "note": "(library stock concentration (final ~1000-fold dilution): 10 mM)", "values": [{"measurement": "IRF Lucia reporter activity", "setting": "[2]; [5]", "value": 1.09}, {"measurement": "IRF Lucia reporter activity", "setting": "[2]; agonist: LPS (TLR4) 0.1 ug/mL", "value": 1.37}]}
{"smiles": "O=C(c1cc(-c2cc3c(cc2C(=O)N2Cc4ccccc4CC2CN2CCOCC2)OCO3)n2c1CCCC2)N(c1ccccc1)c1ccc(O)cc1", "note": "(stereo not given) (library stock concentration (final ~1000-fold dilution): 10 mM)", "values": [{"measurement": "IRF Lucia reporter activity", "setting": "[2]; [5]", "value": 0.268}, {"measurement": "IRF Lucia reporter activity", "setting": "[2]; agonist: LPS (TLR4) 0.1 ug/mL", "value": 0.935}]}
{"smiles": "NC12CC3CC(CC(C3)C1)C2", "note": "(library stock concentration (final ~1000-fold dilution): 2 mM)", "values": [{"measurement": "IRF Lucia reporter activity", "setting": "[2]; [5]", "value": 0.731}, {"measurement": "IRF Lucia reporter activity", "setting": "[2]; agonist: LPS (TLR4) 0.1 ug/mL", "value": 1.09}]}
{"smiles": "NC12CC3CC(CC(C3)C1)C2", "values": [{"measurement": "IRF Lucia reporter activity", "setting": "[1]; library stock concentration (final ~1000-fold dilution): 2 mM, cytotoxicity flag (confluency mask): not cytotoxic", "value": 0.958}]}
{"smiles": "CC(C)(C)c1cc(C(=O)/C(C#N)=N/Nc2cccc(Cl)c2)no1", "note": "(library stock concentration (final ~1000-fold dilution): 10 mM)", "values": [{"measurement": "IRF Lucia reporter activity", "setting": "[2]; [5]", "value": 0.306}, {"measurement": "IRF Lucia reporter activity", "setting": "[2]; agonist: LPS (TLR4) 0.1 ug/mL", "value": 0.762}]}
{"smiles": "CC(C)(C)c1cc(C(=O)/C(C#N)=N/Nc2cccc(Cl)c2)no1", "values": [{"measurement": "IRF Lucia reporter activity", "setting": "[1]; [4]", "value": 0.675}]}
